This sample is rich in variants without activity.
B1: TPR 5TU (parent)
chain: GGAUCUUCUCGAUCUAACAAAAAAGACAAAUCUGCCACAAAGCUUGAGAGCAUCUUCGGAUGCAGAGGCGGCAGCCUUCGGUGGCGCGAUAGCGCCAACGUUCUCAACUAUGACACGCAAAACGCGUGCUCCGUUGAAUGGAGUUUAUCAUG

Variants of: B1
Assay: polymerase ribozyme fitness, log enrichment relative to wild type (log ratio); higher = more active; in vitro selection for triplet polymerase activity
In short: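 Mutant libraries of each subunit of a heterodimeric triplet polymerase ribozyme were built by PCR and transcribed. Each library went through one round of in vitro selection in triplicate: annealing with biotinylated primer, partner subunit and triplets, frozen incubation at −7 °C, gel excision of extended constructs, streptavidin-bead capture and RT-PCR. Input and output libraries were Illumina-sequenced; only genotypes with ≥10 input reads and ≥1 read per output were kept. Fitness is log2(genotype enrichment/wild-type enrichment), using inverse-variance-weighted replicate averages.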

Row | Variant | polymerase ribozyme fitness (log ratio)
1 | A19C C32A G46A G59A G71A G74U A91U A97G | ≤ -4.2
2 | A19C C32U A49G G59U | ≤ -4.2
3 | A19C C32U A52U G80C C99G C149G | ≤ -4.2
4 | A19C C32U C69A U77C C103A G143A U145A | ≤ -4.2
5 | A19C C35G U53A C57A G92A U101C | -4.13
6 | A19C C35U C95U | 0.438
7 | A19C C36U C95G A98G U127A U151C | ≤ -4.2
8 | A19C C36U G59U A60G C93U U104G | -3.23
9 | A19C C43A G59C C116A | ≤ -4.2
10 | A19C C43U C51G G71A C87G C105U C108U G141C | ≤ -4.2
11 | A19C C43U C76A G81C A91G A106U A121C G136U A142G | ≤ -4.2
12 | A19C C51U G92U C93G A113G G126U A142G G143C | ≤ -4.2
13 | A19C C54A C72U C85G C96U A150U | ≤ -4.2
14 | A19C C54A C96U A122G G133C | -2.39
15 | A19C C54A U78G C96U G141C | ≤ -4.2
16 | A19C C54G C93A | ≤ -4.2
17 | A19C C54U C93A C103G | ≤ -4.2
18 | A19C C54U U77G A98G C129A | ≤ -4.2
19 | A19C C72U U77G C93G C96A C118U G140A | ≤ -4.2
20 | A19C C75U C87G C96U G126A | ≤ -4.2
21 | A19C C79U A98U | -1.81

Row | Variant | polymerase ribozyme fitness (log ratio)
22 | A19C C87U | -0.722
23 | A19C C93G A107G | ≤ -4.2
24 | A19C C125U | 0.16
25 | A19C G34A C95A C96G A97G G100U C131A | ≤ -4.2
26 | A19C G50C C87A C114U G143A | ≤ -4.2
27 | A19C G50U G58U G68U | ≤ -4.2
28 | A19C G58C C87A | ≤ -4.2
29 | A19C G58C C87G C132A | ≤ -4.2
30 | A19C G59A U144C | 1.14
31 | A19C G62A G80A U101G C103G A106U U127C U148C | ≤ -4.2
32 | A19C G65A G83C | -1.84
33 | A19C G70A C76G C99G | ≤ -4.2
34 | A19C G70A C99A | ≤ -4.2
35 | A19C G71A G92C C99A G117A G140U | ≤ -4.2
36 | A19C G74C C116A | ≤ -4.2
37 | A19C G80A C85G | -0.89
38 | A19C G88C | -3.96
39 | A19C G133A G141U | ≤ -4.2
40 | A19C U31A C38A G80A A98U | -0.863
41 | A19C U31C | 1.56
42 | A19C U31G A40C G83C G84U C108G | ≤ -4.2

Row | Variant | polymerase ribozyme fitness (log ratio)
43 | A19C U44G G50C G67C U104A G143U | ≤ -4.2
44 | A19C U55A A73U U82G G92A C93G U135A G152A | ≤ -4.2
45 | A19C U55A C123G C125A U148G | ≤ -4.2
46 | A19C U55G G67C U78G G83U C93A U102A A121C | ≤ -4.2
47 | A19C U61A C93G A106U C149A | ≤ -4.2
48 | A19C U61A C103A | ≤ -4.2
49 | A19C U78A C125G | ≤ -4.2
50 | A19C U90G C93A A107U | ≤ -4.2
51 | A19G A20U A37C U55A A91G A110C | ≤ -4.2
52 | A19G A20U C38A G80A G92A A142U | ≤ -4.2
53 | A19G A21U C32G A39G G50A G84U A106C G128A C132G U134G U144G | ≤ -4.2
54 | A19G A22U C51U G67C A98U A137G | ≤ -4.2
55 | A19G A22U G58U A73C A113U A119C | ≤ -4.2
56 | A19G A23U C57G G84U C93G G94C A122U A142C | ≤ -4.2
57 | A19G A23U G92A U148C | ≤ -4.2
58 | A19G A26G C51U A52C G143A | ≤ -4.2
59 | A19G A26G G88A G133U A147G | ≤ -4.2
60 | A19G A26U U31C G92A C96G C103U | ≤ -4.2
61 | A19G A28C A89U G133U A142C | ≤ -4.2
62 | A19G A28G C38U A49C G58A G65A C76A C93G | ≤ -4.2
63 | A19G A28U A49G C51U U55A G86A G94U C96A U144G | ≤ -4.2

Row | Variant | polymerase ribozyme fitness (log ratio)
64 | A19G A29C G92U G126U U144A | ≤ -4.2
65 | A19G A29G A52G C93U G100A G133C | ≤ -4.2
66 | A19G A29G C38A U53A C76U G86U C99U | ≤ -4.2
67 | A19G A29G G92A C116G | -3.8
68 | A19G A30U A66G G74A C105U A121U C129A | ≤ -4.2
69 | A19G A37C C93G A107G A122U C125A | ≤ -4.2
70 | A19G A37C U56A U61G U82G C93U U101C C132U | ≤ -4.2
71 | A19G A37G U53G C96U | ≤ -4.2
72 | A19G A39U U55A C57U G100A C116U U139C | ≤ -4.2
73 | A19G A40C C85G A147C | -3.28
74 | A19G A40U G62U A121U G141U | -1.46
75 | A19G A41C C43U C54G C63A C76G | ≤ -4.2
76 | A19G A47C C54U C85G C96G G140C G143A U145A | ≤ -4.2
77 | A19G A49C | ≤ -4.2
78 | A19G A49C G50C U61G G92C A138C | ≤ -4.2
79 | A19G A49C U61A C93U C95U C103U G140A | ≤ -4.2
80 | A19G A52U A110U U146G | ≤ -4.2
81 | A19G A52U U53A U82C C87G | ≤ -4.2
82 | A19G C27U U55A C75G C95U A110U A113G C114A G141C | ≤ -4.2
83 | A19G C32A A47C G59C C85U A106C G143C | ≤ -4.2
84 | A19G C32A G46C C54U G59C A106U G128C | ≤ -4.2

From the RNAGym collection of RNA variant scans (doi:10.1073/pnas.2313332121)
